Data reported in PubChem BioAssay AID504466 (National Center for Advancing Translational Sciences (NCATS), 2011).
Screen size: about 330,000 compounds; about 4,200 (1.3%) were called active. Inconclusive results, whose numbers are uncertain, are shown with a selection of clear calls. Calls follow the shape of the dose curve; as a rule, active = well fitted activation curve with a large enough effect; inconclusive = small, poorly fitted or top-dose-only effect; inactive = no such curve, though single readings can be large or run the other way. Where the call is inconclusive, the potency comes from a doubtful curve fit.

assay: qHTS screen for small molecules that induce genotoxicity in human embryonic kidney (HEK293T) cells expressing luciferase-tagged ELG1; conditions: HEK293T ELG1-luciferase reporter, luminescence, 16 h; series mostly up to 46 µM; activity change, positive = activation: at the top concentration; also: nearly all actives have a fitted effect of over 60% in size; as to activity change, positive = activation: % of control where 0% means no effect
Text: NIH Molecular Libraries Probe Production Network [MLPCN] NIH Chemical Genomics Center [NCGC] MLPCN Grant: 1 R03 MH092164-01 Assay Provider: Kyungjae Myung, NHGRI, NIH Keywords: MLPCN, qHTS, NCGC, genotoxicity, cancer Assay Overview: Cancer cells divide rapidly compared to normal cells in the body. During cell division, cancer cells need to duplicate their genome by DNA replication. The failure of genome duplication leads to cancer cells' death. Therefore, inhibitors of DNA replication could specifically kill cancer cells. Based on this concept, many chemotherapeutic agents were developed and have been used to treat cancer patients. However, there are a limited number of agents available in the clinical setting, and some of those that do exist have low efficacy and severe side effects. Therefore, if we can find the compounds that effectively block DNA replication either by directly damaging DNA or by inhibiting other cellular mechanisms, the options for cancer treatment will be broadened. With this in mind, we developed a quantitative high-throughput ELG1-luciferase reporter gene assay. Since the level of human ELG1 protein is enhanced in response to genetic stresses, increases in luciferase activity can be used to identify compounds that cause genetic stress.
Assay Protocol Summary: For genotoxicity screening, 2,000 cells in 5 uL/well were dispensed into white, solid-bottom 1536-well plates using a solenoid-based dispenser. Following transfer of 23 nL compound or DMSO vehicle by a pin tool, the plates were incubated 16 hr at 37 °C and 5% CO2. 5 ul ONE-Glo (Promega) was then added to each plate and following a 30 min incubation at room temperature, luciferase activity was quantified on a ViewLux CCD-based plate reader.
Potency is read from the fitted curve at half-maximal effect; tags tell the direction and shape of the fitted curve.

| SMILES | Potency | activity change, positive = activation |
| --- | --- | --- |
| COc1cc(C(=O)N/N=C/c2cc([N+](=O)[O-])cs2)cc(OC)c1OC | inconclusive: 23.1 µM [activator, single point] | – |
| CN(Cc1ccccc1)S(=O)(=O)c1ccc2[nH]cc(C(=O)NCC3CCCO3)c(=O)c2c1 (centres undefined) | inconclusive: 20.6 µM [activator, single point] | – |
| CC(=O)c1ccc(S(=O)(=O)N2CCN(C(=O)CCC3CCCC3)CC2)cc1 | – | inactive: 1.89% |
| COc1ccc2c(c1)cc(C)c1nnc(SCC(=O)N(C)c3nc(-c4ccccc4)cs3)n12 | – | inactive: 0.988% |
| O=C(Nc1ccccc1)ON=C1CCCC1 | inconclusive: 16.4 µM [activator, partial curve, poor fit] | – |
| CCC(C)c1ccc(NC(=O)Nc2cnccn2)cc1 (centres undefined) | inconclusive: 20.6 µM [activator, single point] | – |
| CC(C)(C)c1ccc(S(=O)(=O)NCC(=O)Nc2ccc(-c3nc4ccccc4s3)cc2)cc1 | inconclusive: 9.2 µM [activator, partial curve] | – |
| Cn1c(=NC(=O)c2ccccc2[N+](=O)[O-])sc2cc(S(C)(=O)=O)ccc21 | active: 8.2 µM | – |
| CCn1c(CC(=O)Nc2ccc(F)cc2)nnc1SCC(=O)Nc1nncs1 | – | inactive: -0.849% |
| CCc1ccc(NC(=O)Nc2ccsc2C(=O)OC)cc1 | active: 2.06 µM | – |
| O=C(Nc1ccc(N2CCOCC2)c(Cl)c1)c1ccc([N+](=O)[O-])o1 | inconclusive: 14.6 µM [activator, single point] | – |
| CN(C)c1ccc(/C=N/NC(=O)CN2CCN(c3ccc(F)cc3)CC2)cc1 | – | inactive: 5.47% |
| O=C(Nc1ccccc1Cl)c1cccc(COc2cc(Cl)ccc2Cl)c1 | inconclusive: 5.8 µM [activator, single point] | – |
| CCC(c1nnc(SCc2nc3ccccc3s2)n1Cc1ccccc1)N(C)C (centres undefined) | inconclusive: 18.4 µM [activator, partial curve, poor fit] | – |
| C=C1C[C@H]2[C@@H]3C=C(C)C4=CC(=O)CC[C@]4(C)[C@H]3CC[C@]2(C)[C@@]1(OC(C)=O)C(C)=O | inconclusive: 20.6 µM [activator, partial curve] | – |
| COc1ccccc1CNc1ccc(N2CCCCC2)cc1 | inconclusive: 13 µM [activator, partial curve, poor fit] | – |
| COc1cccc(Nc2ccc(N3CCCCC3)cc2)c1OC | inconclusive: 18.3 µM [activator, partial curve] | – |
| CCCCOc1ccc(C(=O)N/N=C/c2ccc(OCCN3CCCCC3)c(OC)c2)cc1 | inconclusive: 29.1 µM [activator, partial curve, poor fit] | – |
| CC(C)c1ccc(/C=N/NC(=O)c2ccccc2Cl)cc1 | inconclusive: 18.3 µM [activator, single point] | – |
| CCN1C(=O)/C(=C/c2ccc(N3CCCC3)cc2)NC1=S | – | inactive: -2.6% |
| CCN(CC)S(=O)(=O)c1cc(C(=O)Oc2cccc(-c3cnc4ccccc4n3)c2)ccc1Br | inconclusive: 2.31 µM [activator, full curve, poor fit] | – |
| Cc1ccc(C)c(C(=O)OCC(=O)Nc2cccc(S(=O)(=O)N3CCCCC3)c2)c1 | – | inactive: -0.217% |
| CCc1ccc(CCC(=O)Nc2ccccc2C(=O)O)o1 | inconclusive: 13 µM [activator, partial curve] | – |

| SMILES | Potency | activity change, positive = activation |
| --- | --- | --- |
| CC(=Nc1ccc(O)cc1)c1sc2ccccc2c1O | active: 4.61 µM | – |
| O=C(Nc1ccc2[nH]ccc2c1)c1cccs1 | inconclusive: 8.2 µM [activator, partial curve] | – |
| Cn1ccnc1SCC(=O)Nc1ccc2nc(SCC(=O)NC3CC3)sc2c1 | active: 13 µM | – |
| O=C(Nc1ccccn1)c1ccc(S(=O)(=O)N2CCCCC2)cc1 | active: 9.2 µM | – |
| CN(C)CCn1c(NC(=O)c2ccc(Cl)cc2)nc2ccccc21 | inconclusive: 8.2 µM [activator, partial curve] | – |
| COc1cc(C#Cc2ccc3cc(CCO)oc(=O)c3c2)cc(OC)c1 | inconclusive: 5.17 µM [activator, partial curve] | – |
| COc1cccc(/C=N/Nc2cc(N3CCOCC3)ncn2)c1O | inconclusive: 18.3 µM [activator, single point] | – |
| COc1cc2cc3c(N)c(C(=O)NCc4ccco4)sc3nc2cc1OC | inconclusive: 5.17 µM [activator, single point] | – |
| Cc1cc(N2CCCCC2)n2ncc(-c3ccc(Cl)cc3)c2n1 | active: 2.06 µM | – |
| CCCCCNC1=CC(=O)CC(c2ccccc2)C1 (centres undefined) | – | inactive: 2.73% |
| CC(=O)Nc1ccc(Nc2nc(C)c([N+](=O)[O-])c(N(C)c3ccccc3)n2)cc1 | – | inactive: -12.6% |
| Cc1cc([N+](=O)[O-])cc(/C=N\NC(=O)C2COc3ccccc3O2)c1O (centres undefined) | – | inactive: 3.12% |
| CCOc1ccc(-c2nnc3ccc(SCC(=O)N4CCCCC4)nn23)cc1 | – | inactive: -2.43% |
| CCOC(=O)c1csc(NC(=O)c2cccs2)n1 | inconclusive: 5.8 µM [activator, partial curve] | – |
| Cc1ccc(NC(=S)NC(=O)c2ccccc2)cc1NC(=S)NC(=O)c1ccccc1 | inconclusive: 20.6 µM [activator, partial curve, poor fit] | – |
| Cc1ccc(S(=O)(=O)/N=C2/NC(=O)/C(=C/c3ccncc3)S2)cc1 | inconclusive: 25.9 µM [activator, partial curve, poor fit] | – |
| COCc1cc(=O)[nH]c(Nc2nc3ccccc3o2)n1 | inconclusive: 20.6 µM [activator, partial curve, poor fit] | – |
| Cc1ccc(OC(=O)c2ccc3nc(C)sc3c2)cc1 | active: 2.91 µM | – |
| Fc1ccc(Cn2ccc(-c3cnc(-c4ccccc4)s3)n2)cc1 | inconclusive: 9.2 µM [activator, partial curve] | – |
| Cc1cc(C)c2c(n1)sc1c(N3CCN(CCO)CC3)ncnc12 | inconclusive: 23.1 µM [activator, single point] | – |
| CC(C)CCn1c(N2CCCC2)nc2c1c(=O)n(C)c(=O)n2C | inconclusive: 29.1 µM [activator, single point] | – |
| COc1ccc(S(=O)(=O)N2CCC3(CC2)OCCN3S(=O)(=O)c2cccs2)cc1 | inconclusive: 20.6 µM [activator, single point] | – |
| O=[N+]([O-])c1ccc(-c2cnc3ccccc3n2)cc1 | inconclusive: 8.2 µM [activator, partial curve] | – |

| SMILES | Potency | activity change, positive = activation |
| --- | --- | --- |
| CC(=O)Nc1ccc(C2(O)COc3ccccc3O2)cc1 (centres undefined) | inconclusive: 29.1 µM [activator, single point] | – |
| COc1ccc(N2C(=O)CCC(C(=O)NCCCN3CCC(C)CC3)C2c2ccc(OC)c(OC)c2)cc1 (centres undefined) | inconclusive: 13 µM [activator, partial curve] | – |
| CC(C)(CNC(=O)CO/N=C1/C=C2CCC3C(C(O)C[C@@]4(C)C3CC[C@]4(O)C(=O)CO)[C@@]2(C)CC1)C(O)C(=O)O (some centres undefined) | inconclusive: 4.11 µM [activator, partial curve, poor fit] | – |
| COc1cccc(OC)c1C(=O)Nc1ccc(Br)c(C(=O)c2ccccc2)c1 | – | inactive: -17.4% |
| COCCC(=O)NC1CCCc2c1cnn2-c1cccc(C)c1C (centres undefined) | – | inactive: -7.14% |
| CC(=O)Nc1ccc(-c2cn3c(n2)SCC3)cc1 | inconclusive: 16.4 µM [activator, single point] | – |
| Cc1ccsc1/C=C1\SC(=S)N(CC2CCCO2)C1=O (centres undefined) | inconclusive: 16.4 µM [activator, partial curve, poor fit] | – |
| COc1ccc(-n2ncc(N(C)n3cccc3)c(Cl)c2=O)cc1 | inconclusive: 4.11 µM [activator, full curve] | – |
| CC(=O)N1CCN(C(=O)c2ccc(OC3CCN(CCc4ccccc4)CC3)cc2)CC1 | – | inactive: -3.05% |
| Cc1ccc(C)c(C(=O)N(C)CC(=O)Nc2ccccc2C(F)(F)F)c1 | – | inactive: -17.2% |
| COc1cc(SC)ccc1C(=O)Nc1nccs1 | inconclusive: 1.16 µM [activator, partial curve] | – |
| Cc1cccc(C)c1OCC(=O)Nc1cccc(C(=O)O)c1 | inconclusive: 14.6 µM [activator, partial curve, poor fit] | – |
| CCCCCCSc1ccc([C@@H]2[C@H]3C(=O)N(CC)C(=O)[C@H]3[C@]3(C(=O)OC)CCCCN23)cc1 | – | inactive: 1.28% |
| c1ccc(CSc2ccc(-c3cccs3)nn2)cc1 | inconclusive: 9.2 µM [activator, partial curve] | – |
| CN(C)Cc1c(C(=O)N/N=C/CCc2ccccc2)nnn1-c1nonc1N | – | inactive: 3.99% |
| CCc1ccc2[nH]c3nc(SCc4nnc(-c5ccc(C)cc5)o4)nnc3c2c1 | inconclusive: 29.1 µM [activator, single point] | – |
| NC(=O)c1c(NC(=O)c2ccccc2Cl)sc2c1CCC2 | inconclusive: 23.1 µM [activator, partial curve, poor fit] | – |
| Nc1n[nH]c(N)c1N=Nc1ccc(Cl)cc1Cl | inconclusive: 11.6 µM [activator, partial curve, poor fit] | – |
| Cc1ccc2nc(-c3ccc(N4C(=N)SC5CS(=O)(=O)CC54)cc3)sc2c1 (centres undefined) | inconclusive: 8.2 µM [activator, partial curve] | – |
| CCOC(=O)NC(=O)CSc1nc(C)cc(C)c1C#N | active: 5.8 µM | – |
| Cc1cccc(-c2noc(-c3cc4ccccc4oc3=O)n2)c1 | inconclusive: 7.31 µM [activator, partial curve] | – |
| Cc1ccc(OC(=O)Nc2ccccc2)cc1 | inconclusive: 29.1 µM [activator, partial curve, poor fit] | – |
| Cc1ccc(/C=N/Nc2ncnc3nc[nH]c23)cc1 | inconclusive: 9.2 µM [activator, partial curve] | – |
